Measurements reported in the supplement of paper PMC4466236.
Over roughly 33,000 sequences, “E-score (dimensionless, -0.5 to 0.5)” has its median near -0.058; the highest 2% begin near 0.35. The list shows a part of the results.

Tested on: MvaT
Experiment: PBM 8-mer E-score (mean of HK and ME arrays) (E-score (dimensionless, -0.5 to 0.5)); higher = stronger relative binding preference; most listed sequences are background and not binding sites
Procedure, shortened: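 Full-length P. aeruginosa MvaT carrying an N-terminal glutathione S-transferase tag was tested by protein binding microarray following a previously described protocol. Two universal double-stranded 60-mer arrays, ME and HK, were used, each with a constant 25-mer primer region and a variable 35-mer region covering all 8-mers. The rank-based E-score is the mean of the two arrays, parsed with a custom script. Its range runs from -0.5 to 0.5 for each 8-mer.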

Sequence | PBM 8-mer E-score
GTATAGCA | 0.0414
CCTTCCAA | -0.101
CATAGGCG | -0.161
TACACCTA | 0.00738
ACGGGCAT | -0.126
GCTAGAGC | -0.338
GCAGGGAC | -0.247
GAACGCTA | -0.0451
GGGCAAAA | -0.113
CCAGAGAG | -0.219
CGCTGGCC | -0.295
GTAGCCAA | -0.177
AAACCGTT | 0.0732
GTAGGCGA | 0.00233
AGTATAAG | 0.272
CGACAGTC | -0.161
CGAGAGTA | -0.00732
AGCAGCTG | -0.254
CAGTGTGC | -0.156
ATAAGATA | 0.33
AACTCGAT | -0.0303
AAGACCAC | -0.183
CTCATTGA | -0.0757
AGGATGGC | -0.331
ACACTCCG | -0.0139

Sequence | PBM 8-mer E-score
CAGAGTGA | -0.0469
ATTGGAGA | -0.0372
AATTGGAA | 0.215
CGGTGCGA | -0.219
CGATGCCC | -0.285
ACAACTCA | 0.164
CCAGACGG | -0.257
AGAGGTTA | 0.0212
AATTCGAT | 0.16
GTACTCAA | 0.0508
ACGTGGGA | -0.0973
AGGCTATC | -0.2
AATAGGAA | 0.158
TGCCGAAA | -0.0937
CCGCTATA | 0.0983
AATCACCG | -0.05
GGATTGAA | -0.0812
AGGCGTTC | -0.124
ATTCGAGC | 0.00116
GTATGAAA | 0.222
TATAGACA | 0.111
GATGAGGA | -0.133
AAGTTAGT | 0.322
ACAGGGTA | -0.0199
GGGGGGGA | -0.241

Sequence | PBM 8-mer E-score
AAGTAACG | 0.257
GGGGGTAA | -0.239
ATGGATAG | 0.0416
AGTTGCGC | 0.0513
ATAGACAA | 0.163
GAATACGA | 0.0283
TCACATGA | -0.0716
GGGGACAA | -0.0629
CACGAGTA | -0.0592
AACTACTG | 0.205
CCCCTGCC | -0.335
AACAGGGT | -0.031
ACCAAAAT | 0.209
CATGCATC | -0.115
CGATAACG | 0.0686
AGGCCAGC | -0.293
GATAACGC | 0.0903
CAGATACA | 0.117
ACCCCCCC | -0.291
ACCCCGGC | -0.137
CTCAAGTA | 0.178
TAGGTACA | 0.0141
CAACATCA | 0.0517
CCTGCGGA | -0.141
GTCTTTGA | -0.0878

Sequence | PBM 8-mer E-score
CCACGATC | -0.184
ACGTTTAT | 0.249
AGCAGACG | -0.169
CGCTGCCA | -0.217
ACACGACA | -0.098
TCCGTAAA | -0.0668
GTAGAGCA | -0.0664
AGCCGGCG | -0.252
CTTCTCAC | -0.186
CGACCCAG | -0.208
CCCTCGGA | -0.125
CAGGCCGA | -0.213
ACAACGAT | 0.0837
CCTCGCAC | -0.11
TCTGACCA | -0.036
ACTCTGGG | 0.0708
AGCGCTCG | -0.243
CCTCATAA | -0.0267
AGTTGGTG | 0.0483
ACATGGCT | -0.0239
ATGGATTA | 0.214
ATCATTGC | 0.00293
GCGGCGAC | -0.346
ACAACCAC | 0.0264
CCACCGGA | -0.175

Sequence | PBM 8-mer E-score
AGACAAGC | -0.0951
CTTCGGAC | -0.239
TGATACCA | 0.0438
ATCGCCCA | -0.125
CTGACGTC | -0.135
GAGAGATC | -0.197
AATTGGGT | 0.121
TCGATGCA | -0.0529
AAATCGAC | -0.0205
AAACGCTC | -0.0864
CGTAGCAC | -0.112
TAAAGCCA | 0.031
TCATGTCA | 0.079
CCAAGTCC | -0.215
AAGGCGCC | -0.206
CATTATAC | 0.295
CTCATTCA | -0.291
ATGAGCCC | -0.275
GCGTTGGA | -0.221
CCAGCCTC | -0.297
CTTAAGAA | 0.239
GAGCCTGC | -0.246
AAACGGAC | -0.0276
GCCCGGAA | -0.0999
ACGTCCTG | -0.093

Sequence | PBM 8-mer E-score
CAGAATAG | 0.00967
CTGGGATC | -0.23
CCACCGCG | -0.131
TACGTCGA | 0.0167
TACTCCGA | 0.00852
CTAACATC | 0.226
ACAAGGCT | -0.25
CCAGTGAG | -0.126
CCTGTCCA | -0.228
AATCGTCC | -0.0377
CTTCCTTA | 0.0214
CCCTGTGC | -0.142
GATGTTGA | 0.0183
CAAGCTGA | -0.202
ATTATGGA | 0.218
AAATGGGT | 0.0809
CTGATCTC | -0.247
CAAATCTC | -0.0992
GCACAACC | -0.138
CAGTTGCC | -0.278
GGGGTTTA | -0.193
ACCCTACT | -0.0752
AAGGGGCA | -0.214
TGCAGCAA | 0.00169
GAAACGCC | -0.151

Sequence | PBM 8-mer E-score
AGTTTCGG | 0.0118
ATCGCTGC | -0.0586
ATGCAATG | -0.0649
CCGGGGGA | -0.254
AGACAGGA | -0.156
GAGGCATC | -0.2
GAATAGGC | -0.136
CGGCCTCC | -0.262
AAACGATC | -0.0835
AGCTGACC | -0.269
CGCGAACG | -0.173
AAGGCCGA | -0.204
ACCTACGC | -0.167
ATGGACGC | -0.122
AGACGTAG | -0.189
AGTAACAT | 0.284
AGCATGAT | -0.0581
GGGATCCC | -0.246
CAGTCTCA | -0.0899
ATGCCAGC | -0.153
AGGGCACA | -0.247
GATCCTCA | -0.283
